# Assay results from PMC4336329 (PLoS ONE, 2015).
# Among all 310,000 compounds or so, about 2,200 (0.71%) showed an effect of 50% or more. The effect is printed as a negative number. The list shows a part of the results.
# Target: human ether-à-go-go-related gene (hERG) potassium channel (human, UniProt Q12809)
# Experiment: primary screen, population patch clamp on CHO cells stably expressing hERG
# Sequence of human ether-à-go-go-related gene (hERG) potassium channel (Q12809 whole entry, looked up): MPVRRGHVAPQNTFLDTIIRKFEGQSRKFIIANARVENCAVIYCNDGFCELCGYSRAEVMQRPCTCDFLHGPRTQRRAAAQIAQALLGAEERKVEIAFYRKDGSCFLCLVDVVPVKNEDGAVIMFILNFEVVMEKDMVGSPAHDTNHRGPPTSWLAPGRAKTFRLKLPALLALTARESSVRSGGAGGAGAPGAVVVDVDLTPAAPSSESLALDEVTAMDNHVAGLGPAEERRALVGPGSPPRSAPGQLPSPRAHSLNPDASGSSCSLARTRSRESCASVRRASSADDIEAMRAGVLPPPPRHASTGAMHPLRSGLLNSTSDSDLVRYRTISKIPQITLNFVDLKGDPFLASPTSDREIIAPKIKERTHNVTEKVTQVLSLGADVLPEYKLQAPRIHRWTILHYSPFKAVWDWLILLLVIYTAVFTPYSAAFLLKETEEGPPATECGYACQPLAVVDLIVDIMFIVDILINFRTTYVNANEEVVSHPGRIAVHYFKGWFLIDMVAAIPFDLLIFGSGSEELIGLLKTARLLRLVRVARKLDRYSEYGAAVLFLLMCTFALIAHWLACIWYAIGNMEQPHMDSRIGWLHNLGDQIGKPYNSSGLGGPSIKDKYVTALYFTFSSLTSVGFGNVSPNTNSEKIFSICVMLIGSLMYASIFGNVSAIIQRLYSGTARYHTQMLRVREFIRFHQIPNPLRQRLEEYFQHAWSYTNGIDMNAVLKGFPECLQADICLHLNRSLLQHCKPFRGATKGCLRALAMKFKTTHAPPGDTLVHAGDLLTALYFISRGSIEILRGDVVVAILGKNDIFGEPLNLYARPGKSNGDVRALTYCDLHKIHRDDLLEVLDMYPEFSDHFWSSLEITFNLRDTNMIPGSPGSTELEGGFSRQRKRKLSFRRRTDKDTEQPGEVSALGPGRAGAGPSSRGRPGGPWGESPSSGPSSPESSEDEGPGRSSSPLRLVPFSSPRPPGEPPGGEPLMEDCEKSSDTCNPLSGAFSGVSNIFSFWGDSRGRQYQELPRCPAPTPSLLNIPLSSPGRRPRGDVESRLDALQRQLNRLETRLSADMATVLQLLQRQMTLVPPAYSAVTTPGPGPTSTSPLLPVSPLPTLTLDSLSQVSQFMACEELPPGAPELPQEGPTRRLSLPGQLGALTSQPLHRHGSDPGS
row,Compound,"hERG current change (%, negative = inhibition) at 1uM"
1,Cc1ccc(CNC(=O)COC(=O)c2nc(-c3ccccc3)oc2C)cc1,3.64%
2,CC(=O)Nc1sc(NC(=O)c2ccccc2)nc1-c1cccs1,11%
3,CC(=O)N1c2ccccc2C2CCCC[C@H]21 (stereo partly drawn),17.7%
4,O=C(Oc1ccc(OC(=O)N2CCCCC2)cc1)N1CCCCC1,8.84%
5,C=CCOc1ccc(/C=C/C(=O)OCC(=O)NC2CCCCCC2)cc1,-5.36%
6,Cc1cc(C)nc(CCNC(=O)c2cc(COc3c(F)cccc3F)on2)n1,9.91%
7,CCOC(=O)N1CCC(N(CCN(C)C)C(=S)Nc2cccc(C)c2)CC1,12.6%
8,CC(=O)Nc1nnc(SCC(=O)NC(C)(C)C)s1,4.5%
9,CC(C)N(C(=O)CSc1n[nH]c(=O)n1CCc1ccccc1)C(C)C,9.05%
10,COc1ccc(-c2nc3ccncc3[nH]2)cc1OC.Cl,10.1%
11,COc1ccc(OC)c(C(C)NC(=O)C23CC4CC(CC(C4)C2)C3)c1 (stereo not drawn),15.8%
12,COC(=O)c1cc(OC)c(OC)cc1NC(=O)c1ccc(OC)cc1,5.44%
13,CC(C)CN(C(=O)COC(=O)c1cccn1C)c1c(N)n(Cc2ccccc2)c(=O)[nH]c1=O,16.6%
14,Cc1cnc(C(=O)OCC(=O)c2c(N)n(CC(C)C)c(=O)n(C)c2=O)cn1,4.36%
15,CCOc1ccc(S(=O)(=O)N2CCOCC2)cc1NC(=O)C1CSC2(C)CCC(=O)N12 (stereo not drawn),3.78%
16,CCc1n[nH]c(=S)n1/N=C/c1ccccc1OCc1ccc(Cl)cc1,17.1%
17,CCCCCCCNC(=O)c1cc(-c2ccncc2)nc2ccccc12,15.4%
18,O=C(CSc1cccc2cccc(Cl)c12)NCc1cccs1,8.04%
19,Cc1cccc(C)c1NC(=S)N(CCCN1CCOCC1)Cc1cccnc1,9.28%
20,CCN(CC)C(=S)SCC(=O)Nc1ccc(F)cc1,1.48%
21,COCCN(C(=O)COC(=O)c1ccc(C=O)cc1)c1c(N)n(Cc2ccccc2)c(=O)[nH]c1=O,7.21%
22,COc1ccccc1/C=N/Nc1nc(C)c(C(C)=O)s1,11.6%
23,O=C(CCc1nc(-c2cccs2)no1)NCc1ccc(F)cc1Cl,-3.46%

row,Compound,"hERG current change (%, negative = inhibition) at 1uM"
1,O=C(CSc1ncnc2nc[nH]c12)Nc1ccccc1C(F)(F)F,10.8%
2,CC(=O)c1ccc(NC(=O)COC(=O)C2C3CC4OC(=O)C2C4C3)cc1 (stereo not drawn),10.8%
3,COc1ccc(CCN=C(NS(=O)(=O)c2ccccc2)c2ccccc2)cc1OC,14.6%
4,N#Cc1ccccc1NC(=O)CN1C(=O)NC(Cc2c[nH]c3ccccc23)C1=O (stereo not drawn),4.34%
5,O=C(Nc1cccs1)Nc1c(F)c(F)c(F)c(F)c1F,-34.5%
6,CC(C)c1ccccc1NS(=O)(=O)c1cccs1,10.9%
7,CCOC(=O)CC(NC(=O)CCc1c(C)nc2ncnn2c1C)c1ccc(C)cc1 (stereo not drawn),7.89%
8,O=C(N/N=C/c1ccc(N2CCCCC2)o1)c1ccccc1,10.7%
9,CC(=O)Nc1ccc(NCc2cccs2)cc1,12.5%
10,CC(C)=CCN1CCN(Cc2cn(C(C)C)c3ccccc23)CC1CCO (stereo not drawn),4.15%
11,O=C(OCC(=O)c1c[nH]c2ccccc12)c1ccc([N+](=O)[O-])s1,7.46%
12,Cn1c(=O)[nH]c(=O)c2c1nc(N1CCc3ccccc3C1)n2CCSc1nc2ccccc2s1,18.7%
13,Cc1cccc(CCN(CC(=O)NC2CCCCC2)C(=O)c2csnn2)c1,5.92%
14,CC(C)c1cc(N2CCOCC2)n2ncc(-c3ccccc3)c2n1,-7.66%
15,COc1ccc(C(CNC(=O)c2cccn2C)N2CCOCC2)cc1 (stereo not drawn),6.05%
16,CCOC(=O)c1cnc2ccccc2c1NCCc1ccc(OC)c(OC)c1,-72%
17,Cc1nnc(C)n1/N=C/c1ccc(C(=O)O)cc1,14%
18,O=C(CSc1ccc(F)cc1)Nc1ccc(C2SCCS2)cc1,9.58%
19,CCN(CC)CCN(Cc1cc2cc3c(cc2[nH]c1=O)OCO3)C(=S)NCCCOC,5.24%
20,COc1cccc(-c2nc(CS(=O)CC(=O)O)c(C)o2)c1 (stereo not drawn),7.93%
21,CC(=O)N/N=C/c1cc([N+](=O)[O-])ccc1OCCOc1ccccc1,5.03%
22,CCC(C)(C)NC(=O)c1sccc1Oc1ccc(F)cc1[N+](=O)[O-],5.57%
23,CCN1CCN(Cc2c(OC)ccc3ccccc23)CC1,7.06%

row,Compound,"hERG current change (%, negative = inhibition) at 1uM"
1,Cc1ccc2nc(N3CCN(CCO)CC3)nc(-c3ccccc3)c2c1,-9.56%
2,O=C(CN1CCNCC1)Nc1ccc(Oc2ccccc2)cc1,6.34%
3,CCOc1ccc(N(C)S(=O)(=O)c2cnc[nH]2)cc1,1.84%
4,Cc1ccc(C(=O)Nc2cccc(C(F)(F)F)c2)cc1NC(=O)c1nccn1C,5.95%
5,Cc1noc(C)c1C(=O)NC1=NCCS1,-8.14%
6,O=C(NCc1ccc(C(F)(F)F)cc1)C1CC(c2ccccc2C(F)(F)F)=NO1 (stereo not drawn),8.17%
7,CCOCCCn1c(SCC(=O)Nc2ccc(OC)cc2)nc2ccccc2c1=O,5.8%
8,CC(NC(=O)CN(C)Cc1cccc(F)c1)c1ccccc1 (stereo not drawn),11.6%
9,COCCn1c(C(=O)N2CCCC2)cc2c1C[C@H]1CN(C(=O)c3ccccc3)[C@@](Cc3ccc(F)cc3)(C(=O)OC)[C@@H]21,3.78%
10,CCOC(=O)c1c(C)[nH]c(C(=O)COC(=O)CNC(=O)c2ccc(Cl)cc2Cl)c1C,22.7%
11,N#Cc1cn(Cc2ccccc2)c2ccccc12,11.4%
12,CCOc1ccc(-c2nnc(-c3ccncc3)o2)cc1OCC,4.87%
13,CCS(=O)(=O)NCc1cn2ccsc2n1,8.52%
14,CCOC(=O)c1cc(NC(=O)Nc2ccc(OC)c(OC)c2)c(C)nc1C,13.5%
15,COC(=O)CNC(=O)C1CCN(c2nc(C)cc(C)n2)CC1,11.3%
16,CCn1c(=O)n(CC(=O)N2CCC3(CC2)OCCO3)c(=O)c2ccccc21,7.61%
17,CC(C)=CCN1CCN(Cc2ccc(Sc3nncn3C)o2)CC1CCO (stereo not drawn),19.2%
18,COC(=O)c1ccc[n+](CCc2c[nH]c3ccccc23)c1.[Br-],15.9%
19,COc1ccc(S(=O)(=O)Nc2c(C(=O)O)[nH]c3ccc(OC)cc23)cc1,12.6%
20,O=C(CSc1nnc(-c2ccccc2)o1)N1CCCCC1,10.9%
21,NNC(=O)c1cc2c(N3CCC(Cc4ccccc4)CC3)ncnc2s1,7.11%
22,COc1ccc(C(=O)OC2C[C@H]3CC[C@@H](C2)N3O)cc1OC (stereo partly drawn),12.4%
23,COC(=O)C1(C)NCCc2c1[nH]c1ccccc21 (stereo not drawn),13.2%

row,Compound,"hERG current change (%, negative = inhibition) at 1uM"
1,c1ccc(OCc2nc(-c3cccs3)no2)cc1,12.5%
2,CCN1CCN(C(=O)C2CCN(Cc3cc(Cl)ccc3O)CC2)CC1.O=C(O)C(=O)O,2.93%
3,COCCn1c(SCC(=O)NCc2cccs2)nnc1-c1ccc(OC)cc1,15.1%
4,CCCn1c2ccccc2c2nnc(SCc3[nH]c(=O)[nH]c3C(=O)CCCCC(=O)OCC)nc21,3.48%
5,CCOC(=O)Cc1csc(NC(=O)CCSc2ccccc2)n1,7.34%
6,CC(=O)Oc1ccc(C(=O)Nc2cccnc2)cc1,13.2%
7,CCSc1nnc(NC(=O)c2ccc(C)o2)s1,9.75%
8,Cn1c(COc2ccc(Cl)cc2)nnc1SCC(=O)NC1CC1,-3.09%
9,COc1ccccc1N1CCN(C(C)C(=O)Nc2ccc(S(=O)(=O)N3CCOCC3)cc2)CC1 (stereo not drawn),-1.47%
10,Cc1ccccc1OC/C(O)=C(\C#N)c1nc2ccccc2[nH]1,7.44%
11,CCO[C@@H]1OC(C(=O)N2CCN(Cc3ccc4c(c3)OCO4)CC2)=C[C@H](c2cn(C(C)=O)c3ccccc23)[C@H]1CCCO,11.8%
12,CCOCCCNC(=O)C(Cc1ccccc1)NS(=O)(=O)c1ccc2c(c1)c(=O)n(C)c(=O)n2C (stereo not drawn),2.62%
13,Cc1ccc(-c2nn[nH]n2)cc1Cl,11.7%
14,O=C1C2C3C=CC(C2C(=O)N1c1ccccc1O)C1C2C(=O)N(c4ccccc4O)C(=O)C2C31 (stereo not drawn),13.1%
15,COc1ccc(-n2c(SCC(=O)Nc3cccc4ccccc34)nc(O)cc2=O)cc1,15.4%
16,O=C(c1ccc(-n2c(SCc3cc(F)ccc3F)nc3ccccc3c2=O)cc1)N1CCOCC1,14%
17,CC1CCc2sc3ncn4nc(C(=O)NCc5ccco5)nc4c3c2C1 (stereo not drawn),-2.05%
18,CC(C)(C)C1CCc2onc(C(=O)Nc3ccc4c(c3)OCO4)c2C1 (stereo not drawn),8.94%
19,CC(=O)C1=C(C)NC(SCC(=O)c2ccc(Cl)c(Cl)c2)=C(C#N)C1c1ccco1 (stereo not drawn),10%
20,O=C(CN1C(=O)CCS(=O)(=O)c2ccccc21)NCc1ccc(F)cc1,2.98%
21,CC(C)c1nc(SCC(=O)N2CCOCC2)c2c(=O)n(C)c(=O)n(C)c2n1,6.43%
